The values that follow come from the supplement of paper PMC12632987.

Sequences and labels used below:
B1: GBRAP_128_3252 (protein)
chain: MNAEVVAQAKAFVEALKNSDAATRKAIAAAFAAWLLSLSDEDAAQAVAVVKERLPELSVEDLDILADALRAAMPAASPEKANLLADLEVEALNEAEEKEE
B2: GBRAP_14_3823 (protein)
chain: TAALTALIDAGFAALTATLSDIVPAHAAEIAALVDAVRAALLATIAATGDVAAAVDAARAALLAGLEALLADAPAEDRTAALAAARVEMAELEAELDEAE
B3: GBRAP_160_4022 (protein)
chain: SESVEEIIADFGEELDLIAAHADEMDVDTLAGALRTAVGQAIMDAAENPDMADWTREEVDALDALADEAAAVMGTGDPAARRAALERLREAVAAAVKKAA
B4: GBRAP_83_6871 (protein)
chain: AEEITVATTGDHIESAVDAAIDLSKNEGYDVTLEIIATPEQRDAVLAAVRRLAEAGVTMEIVIVLRGATPEQAAALEAEIRAILAAAGVDNTIEVILEEP
B5: GBRAP_52_6325 (protein)
chain: MEEKIKKYAEELYAAIVAGDKEKAYALAEEAVEELTPEEILEMAKIVAEKIATEDDEVHERAAEVFEYLADLVIEKKGDEKTAAEILGIYAKTLYAAELK
B6: GBRAP_160_4803 (protein)
chain: NPRVDAVAALFREALDEALAMSEGESVEERANIFDVETYTAILEAEERGLLNDEEEEVAVAVADALVAEVRANPDLTPEQLAALAAAAVAELRARLEALA
B7: GBRAP_160_4279 (protein)
chain: SEKLLELAEELEEDREEILSLVDEISAEEVRTLAVTDLGSILLEAIDLELLSDEEEDELAKIIDDLDAELAAAADASPAERRAIITRHYDKAIELLRKAA
B8: GBRAP_125_3137 (protein)
chain: KREALIALARALAEAFGLSEEDIAELMELAERFDPGQTIVAVLLAAGFEEAAELAERVLPRLTEEEARELRALAEELRDAPLEEFRARLTARLEELLARQ
B9: GBRAP_160_4626 (protein)
chain: SEKLKKAKERIEEEAEFVLSLVDEVDVETLAHFLDTEFGSTILELLEEGLISEELADELMEIVDEAVDYLLAHPDLTPEERRELIEKTREEMIKTLEKHY
B10: GBRAP_160_4255 (protein)
chain: AAKVDEIAADLAAEMDDAIAEAAELTPEELAALIAGTIGSAIMELIELGLITDEQEDELIALEDQAVAAALAKDELTLDELRARLQALRDAILAVLEKAK
B11: GBRAP_128_3576 (protein)
chain: SDEEILEKAKELIKKIIESDVEEAKKYAEELAKLLKEADPETREKIVELILEALPKLSVEKLEVLADVFREQRPKADPETANLLAEIEVEALNEAVEKEE
B12: GBRAP_74_6541 (protein)
chain: MEEKVKKIKELIEEGKFEEAFELTKEIIRNEDPETAVKAMEVLTKGVIEHKEELTLEEAELLGEVIVELYLRVPDELISDELAKLINETLAIIMEIEEKA
B13: GBRAP_52_6382 (protein)
chain: EVEKAAKLLREAIELIIEGGEEEEIRKLAKEISKFSEEVIEKAAELVAEEILKLSKEEAEKVLDATFKLADILIEVGIPEEIASLIESTIGKAVYQRLQA
B14: GBRAP_78_6575 (protein)
chain: EVEELVDKAIELLGKAGSLLSKIDTEEAQEILDLVIDAMSDLLEAEENGFDLKLIEEALKKVEEALKLVKKIDTEEAKEIAKLLEEAKKYLEEAIKLLKK
B15: GBRAP_128_3246 (protein)
chain: MQEELLEEAKEIIDEIKEVDEERAAELTEELLELLKELDEESREEVAEYFEEKLKELTAEKLEVVADVIRERRGELDPYTAALVAGVEIDALELAEELEE
B16: GBRAP_160_4163 (protein)
chain: MEEAEELIKEVEEETKEAIELIEGESIEQRKVIIAGHFGVIIMTLFESDVVSDEVVDFAVELRDELVKWIDENPDASLEEIKKKIKEAEKKIKEKIKKDA
B17: GBRAP_57_6453 (protein)
chain: MSRLEKVEEKAEETKELIEKNAPKEEIEESVRELVSLLSEETLLDVALILDPTTDPDASREELEEHIVKLIMEALETKGKEAAFRMIDLIVGQKEMEEIE
B18: GBRAP_125_3079 (protein)
chain: ADAAALADLAALARALGLSEDDVAELVALAAASSLKQTLIALFMAEGWEEVADALEKLTEEQAKAVLAAVAAYLAAHPDATPEEVRARALALARAALAAA
B19: GBRAP_166_4886 (protein)
chain: SKEEEVEELLKKAEEYIKKIPSANEEEKQELVFEAAEALAKILELSPNNEEEHEKITKLIAELIKAVGDPTLVRGALGSNISMDEELIDKLDELLEKALK
B20: GBRAP_83_6926 (protein)
chain: MEEIVVAANGDNVQAAFDAAIDLAKNEGYKVSLDVIITREDIPALKEAFEKLAKAGVNVELRILAVGMTEEEAKALEKELKEIAKKYGVEVKVEVEVVEA
B21: GBRAP_11_2868 (protein)
chain: KKEKLEELAKLVKEAIEKLEKLLKEGVDNEELRKEIKKLLKEALKLAEKYASPAVAELLKIALEDLEKAEEDPENAKEYVERALAALRVAHGDLLLEIDE
B22: GBRAP_160_4229 (protein)
chain: SETVKKIVAITRESLEEALELIEGETPEERRVILDVTHGEILLEVDEIEEATDEMEEVVDESVEETRERLLAARDATPEEKRAIVEEGVRELEERLKEVE
B23: GBRAP_139_3698 (protein)
chain: SALEKKIEEAKELTKKMKENEEESIDKIVELIKSSSLEEAEKIVEAIAEELSELPLDEAEELADKLLERIEEKIEDEDKVDLAEAILNGALARKAYQEEL
B24: GBRAP_160_4120 (protein)
chain: SEKLLKTAKDNAEDFEETIEEIEDLSNEEAGTLAIVTLGEAILDFSELDGEFEEEEEFAEELMDELRETEKTDPEKLKEKSLEKLKEAKERFKKKAKELE
B25: GBRAP_128_3316 (protein)
chain: MNEEKLAKAKELIEKLKKADLETLRKLTREIVELMGTATPEEQEIIAELFEEGLKKLSAEKLEAVADVLREQMPTLDPDTANIVADLEVEALNLAEEKEE
B26: GBRAP_184_5214 (protein)
chain: KLVNRAVEAETAEEAIEKSEKVVEEAEKEGVELNLVVFAKNMSIEEIEEVMKYLSELKKEGKIKDAILVIEDDLSEEEIDEILKLADKYGIKVVLALPDE
B27: GBRAP_128_3306 (protein)
chain: MDEEALAEAEELVRRMVEADVEEAAELTRRIVALMATLSPEERERVAEIMEKAFEELDAEKLEAVADVLRAERPTLDPETAREVAGLEVEALNQAVEKEE
B28: GBRAP_160_4563 (protein)
chain: MEEAEKLVKELREDVEKTLEETKNDSVENLKVALEGVIGSHAMEAAEDPRFTDEQVDVLLDARDEISEYLKKHKNASVEEIKKKVLEIVEKAGKEILALA
B29: GBRAP_160_3982 (protein)
chain: EERYEKIIKFIDETFEEAIKLIEGETHEERVTIVEGHGGQILMMLMSDENVSDEAEEKVAEIIDELVEYLKENPDLTLEEIKELIKEAREKIKEVLKEAF

In all, about 4,500 sequences were measured (“median log2 fold change of GCK-ALFA target abundance (FLAG IP / Myc IP barcode read proportion)”: median about 0.078, lowest 2% from about -0.6 on). This is one part of the list.

Sequence of GABARAP, O95166 (O95166 whole entry, the tested form may be a part): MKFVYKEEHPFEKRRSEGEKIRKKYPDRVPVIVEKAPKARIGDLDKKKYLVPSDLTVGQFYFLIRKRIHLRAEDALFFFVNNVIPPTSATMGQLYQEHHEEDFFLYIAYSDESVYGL

For this assay, the target named is GABARAP, O95166. The assay can be described thus: median log2 fold change of GCK-ALFA target abundance (FLAG IP / Myc IP barcode read proportion) (log2 ratio); each designed protein is fused to an ALFA-tag nanobody in HEK293 cells to bring the named protein to FLAG-tagged glucokinase (GCK); Myc marks an untargeted standard; higher = target protein stabilised (more abundant). The following applies: target protein: 3xFLAG-MCP-GCK-ALFA reporter; HEK293 landing pad (RPLP). Summed up:
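An ALFA-nanobody-fused binder library was recombined into HEK293 landing-pad cells and induced with 2 μg mL^−1 doxycycline. Cells were transfected with a plasmid expressing a FLAG-tagged target and a Myc-tagged standard. After 48 h, lysates underwent anti-FLAG and anti-Myc immunoprecipitation, and circular RNA barcodes were reverse transcribed, amplified and sequenced. Target abundance is the per-binder median log2 ratio of FLAG to Myc barcode read proportions. Barcodes needed ≥10^−7 proportion in both replicates, binders ≥3 barcodes per replicate, and a 10^−6 pseudocount was added; the two replicates were pooled.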
In the case of B1, the “median log2 fold change” value was 0.125. B2: the “median log2 fold change” value was 0.109.

In the case of B3, the “median log2 fold change” value came to 0.121. Consider B4, for which the “median log2 fold change” value was 0.267. For the molecule B5, the “median log2 fold change” value was 0.181. The figure for B6 is -0.367. In the case of B7, the “median log2 fold change” value was -0.493.

Turning to B8, the “median log2 fold change” value was -0.234. In the case of B9 it was -0.213; in that of B10, -0.343; in that of B11, 0.00207. Take B12: the “median log2 fold change” value is -0.118. As to B13, the “median log2 fold change” value is 0.00279. In the case of B14, the “median log2 fold change” value came out at 0.122. B15: the “median log2 fold change” value was -0.282. In the case of B16 it was 0.215; in that of B17, 0.289. With B18, the “median log2 fold change” value was determined as 0.1.

B19: the “median log2 fold change” value is 0.388.

For the molecule B20, the “median log2 fold change” value was found to be 0.0202. Regarding B21, the “median log2 fold change” value was 0.0406. In the case of B22 it was -0.135; in that of B23, -0.0178; in that of B24, 0.187.

For the molecule B25, the “median log2 fold change” value is 0.338. As for B26, the “median log2 fold change” value was found to be 0.201. In the case of B27 it was 0.161; in that of B28, 0.116.

As for B29, the “median log2 fold change” value was determined as 0.198.
